The record followed here is PMC4336329 (PLoS ONE, 2015).

The structures appear in SMILES notation. Screen size: about 310,000 compounds; about 2,200 (0.71%) showed an effect of 50% or more. Effects have a minus sign here. This is one part of the list.

This assay deals with human ether-à-go-go-related gene (hERG) potassium channel (human, UniProt Q12809). Nature of the assay: primary screen, population patch clamp on CHO cells stably expressing hERG.
Chain of human ether-à-go-go-related gene (hERG) potassium channel (Q12809 whole entry, looked up): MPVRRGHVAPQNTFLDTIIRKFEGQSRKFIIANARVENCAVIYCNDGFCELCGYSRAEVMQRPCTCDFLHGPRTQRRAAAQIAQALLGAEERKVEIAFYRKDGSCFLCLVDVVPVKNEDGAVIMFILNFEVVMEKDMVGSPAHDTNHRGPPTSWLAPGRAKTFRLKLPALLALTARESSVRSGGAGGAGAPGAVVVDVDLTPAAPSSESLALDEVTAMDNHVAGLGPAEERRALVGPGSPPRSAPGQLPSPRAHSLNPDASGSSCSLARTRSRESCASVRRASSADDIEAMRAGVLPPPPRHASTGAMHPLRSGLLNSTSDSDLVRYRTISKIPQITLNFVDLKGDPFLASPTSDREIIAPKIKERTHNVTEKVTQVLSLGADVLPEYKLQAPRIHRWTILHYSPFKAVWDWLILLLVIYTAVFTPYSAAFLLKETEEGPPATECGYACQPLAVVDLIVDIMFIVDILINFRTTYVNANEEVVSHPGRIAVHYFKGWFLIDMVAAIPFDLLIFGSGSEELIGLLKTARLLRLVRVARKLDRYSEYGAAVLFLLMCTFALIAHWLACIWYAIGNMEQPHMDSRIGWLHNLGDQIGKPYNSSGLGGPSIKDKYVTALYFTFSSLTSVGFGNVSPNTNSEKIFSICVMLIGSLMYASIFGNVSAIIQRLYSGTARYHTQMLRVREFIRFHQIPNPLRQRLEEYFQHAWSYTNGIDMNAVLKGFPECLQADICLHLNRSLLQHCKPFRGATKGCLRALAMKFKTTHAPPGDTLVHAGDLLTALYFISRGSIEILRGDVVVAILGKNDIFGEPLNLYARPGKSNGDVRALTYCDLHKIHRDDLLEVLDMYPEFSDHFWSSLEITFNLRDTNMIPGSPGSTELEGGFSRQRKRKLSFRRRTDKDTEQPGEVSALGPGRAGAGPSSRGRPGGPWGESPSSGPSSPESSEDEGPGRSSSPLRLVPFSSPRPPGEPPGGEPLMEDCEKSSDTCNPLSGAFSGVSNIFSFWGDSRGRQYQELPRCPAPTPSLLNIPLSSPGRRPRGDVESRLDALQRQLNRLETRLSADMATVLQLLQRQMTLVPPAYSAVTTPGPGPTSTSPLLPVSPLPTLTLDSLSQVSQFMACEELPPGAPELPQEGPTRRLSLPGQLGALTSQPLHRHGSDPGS
For `Cc1ccc2cccc(S(=O)(=O)N3CCCc4ccccc43)c2n1`, the “hERG current change (%, negative = inhibition) at 1uM” value is recorded as 6.59%.

Turning to `COc1ccc(CNC(=O)[C@H](Cc2c[nH]c3ccccc23)NC(C)=O)cc1OC`, the “hERG current change (%, negative = inhibition) at 1uM” value was 9%.

With `Cc1c([N+](=O)[O-])c(C(=O)NC2CCCCC2)nn1C`, the “hERG current change (%, negative = inhibition) at 1uM” value is -10%.

For the molecule `O=C(Nc1nnc(C2=COCCO2)o1)c1ccc(Cl)cc1`, the “hERG current change (%, negative = inhibition) at 1uM” value is on record as 15.1%.

With `COc1ccc(-c2nnc(NC(=O)c3ccc(S(=O)(=O)N4COCC4(C)C)cc3)o2)cc1`, the “hERG current change (%, negative = inhibition) at 1uM” value was found to be 9.3%.

Regarding `O=Nc1ccc(NOC(=O)c2ccccc2)cc1`, the “hERG current change (%, negative = inhibition) at 1uM” value is recorded as 8.09%.

As to `O=C1NC(NS(=O)(=O)c2ccccc2)(C(F)(F)F)C(=O)N1Cc1ccccc1` (centres unmarked), the “hERG current change (%, negative = inhibition) at 1uM” value stood at 13.4%.

In the case of `O=C(NCC1CCCO1)c1cc2n(n1)C(C(F)(F)F)CC(c1ccc(Br)cc1)N2` (centres unmarked), the “hERG current change (%, negative = inhibition) at 1uM” value is -2.6%.

With `O=C(NCc1cccnc1)C1CCN(S(=O)(=O)c2cc(Cl)ccc2Cl)CC1`, the “hERG current change (%, negative = inhibition) at 1uM” value came out at 7.78%.

On to `COc1cc(NC(=S)NCc2ccco2)c(OC)cc1Cl`, for which the “hERG current change (%, negative = inhibition) at 1uM” value is on record as 4.35%.

With `COc1ccc(Cn2cnc([N+](=O)[O-])c2)cc1[N+](=O)[O-]`, the “hERG current change (%, negative = inhibition) at 1uM” value came to 9.64%.

Consider `O=C(CCNS(=O)(=O)c1cccc2nsnc12)N1CCc2ccccc21`, for which the “hERG current change (%, negative = inhibition) at 1uM” value came out at 2.51%.

On to `CC1CN(CC(O)COc2ccc(C(=O)c3ccccc3)cc2)CC(C)O1` (centres unmarked), for which the “hERG current change (%, negative = inhibition) at 1uM” value is on record as -4.77%.

Consider `Cc1csc(CNC(=O)C2CCC(=O)N(CCCc3ccccc3)C2)n1` (centres unmarked), for which the “hERG current change (%, negative = inhibition) at 1uM” value was determined as 4.75%.

Regarding `NC(=O)[C@H]1CC2(CC(c3cccc(NC(=O)CC(c4ccccc4)c4ccccc4)c3)=NO2)CN1C(=O)C(c1ccccc1)c1ccccc1` (some centres unmarked), the “hERG current change (%, negative = inhibition) at 1uM” value came to 11.8%.

For `CCn1c(SCC(=O)NCc2ccc(C)cc2)nnc1-c1ccncc1`, the “hERG current change (%, negative = inhibition) at 1uM” value is on record as 4.07%.

Consider `Cn1c(SCC(=O)Nc2ccc(Cl)cc2)nc(O)cc1=O`, for which the “hERG current change (%, negative = inhibition) at 1uM” value worked out at 8.26%.

In the case of `O=C(NCc1cccs1)C1CCCN(c2nc3ccccc3o2)C1` (centres unmarked), the “hERG current change (%, negative = inhibition) at 1uM” value is -30.9%.

Take `N#Cc1nc(-c2ccco2)oc1N1CCN(Cc2ccccc2)CC1`: the “hERG current change (%, negative = inhibition) at 1uM” value is listed as 10.5%.

For the molecule `CCOc1ccc(NS(=O)(=O)c2ccc(NS(=O)(=O)c3ccccc3)cc2)cc1`, the “hERG current change (%, negative = inhibition) at 1uM” value came out at 3.84%.

With `Cc1cccc(NC(=O)c2ccc3nccnc3c2)n1`, the “hERG current change (%, negative = inhibition) at 1uM” value is listed as -9.66%.

For `Cc1ccnc(NC(=O)c2ccc3c(c2)S(=O)(=O)c2ccccc2C3=O)c1`, the “hERG current change (%, negative = inhibition) at 1uM” value is recorded as -0.34%.

Regarding `C=CCSC1=C(C#N)C(c2ccc(OCC)cc2)CC(=O)N1` (centres unmarked), the “hERG current change (%, negative = inhibition) at 1uM” value was 6.87%.

On to `O=C(C[n+]1cccc(C(=O)N/N=C/c2ccc(Br)cc2)c1)c1ccccc1`, for which the “hERG current change (%, negative = inhibition) at 1uM” value is recorded as -14.6%.

In the case of `COc1cc(Nc2ccccc2Cl)c([N+](=O)[O-])nc1[N+](=O)[O-]`, the “hERG current change (%, negative = inhibition) at 1uM” value turned out to be 7.85%.

In the case of `O=C(Nc1ccc(S(=O)(=O)N2CCCCC2)cc1)C1CCN(C(=O)c2ccc(F)cc2)CC1`, the “hERG current change (%, negative = inhibition) at 1uM” value was determined as 8.12%.

`CCOC(=O)CSc1nnc(CNC(=O)c2ccc(OC)cc2)n1-c1ccc(OC)cc1`: the “hERG current change (%, negative = inhibition) at 1uM” value is reported as 1.6%.

In the case of `C/C(=N\NC(N)=O)C1CC(Cc2ccccc2)C(=O)O1` (centres unmarked), the “hERG current change (%, negative = inhibition) at 1uM” value is on record as 9.05%.

On to `COc1c(C(=O)Nc2ccc(Cc3ccncc3)cc2)ccc2ccccc12`, for which the “hERG current change (%, negative = inhibition) at 1uM” value amounted to 3.83%.

With `O=C(CCc1ccc(O)c(O)c1)N/N=C/c1cc2c(cc1[N+](=O)[O-])OCO2`, the “hERG current change (%, negative = inhibition) at 1uM” value is given as 15.2%.

In the case of `Cc1cccc(NC(=O)Nc2ccc(S(=O)(=O)Nc3onc(C)c3C)cc2)c1`, the “hERG current change (%, negative = inhibition) at 1uM” value is on record as 12.7%.

As for `COc1ccccc1N1CCN(C2CCN(S(=O)(=O)c3ccc(C)cc3)CC2)CC1`, the “hERG current change (%, negative = inhibition) at 1uM” value is on record as -5.86%.

`CCCc1ccc(-c2cc(NC(=O)CSc3n[nH]c(N)n3)n(-c3ccccc3)n2)cc1`: the “hERG current change (%, negative = inhibition) at 1uM” value is 7.98%.

With `O=S(=O)(Nc1cccc(-c2nc3cccnc3s2)c1)c1ccc2c(c1)OCCO2`, the “hERG current change (%, negative = inhibition) at 1uM” value came out at 12.6%.

`Cc1ncc([N+](=O)[O-])n1CC(=O)Nc1ccc(Cl)cc1`: the “hERG current change (%, negative = inhibition) at 1uM” value stood at 11.9%.

Regarding `COc1cc(CNc2ccc(S(N)(=O)=O)cc2)ccc1OCC(=O)NC1CCCCC1`, the “hERG current change (%, negative = inhibition) at 1uM” value is listed as 17.3%.

Turning to `Cc1ccc(S(=O)(=O)c2nc(C)oc2NCc2ccccc2)cc1`, the “hERG current change (%, negative = inhibition) at 1uM” value was found to be 17.4%.

In the case of `C=CCNC(=O)COc1ccc(S(=O)(=O)NC2CCCCC2)cc1`, the “hERG current change (%, negative = inhibition) at 1uM” value is 14%.

For `O=C(COC(=O)Cc1c(F)cccc1Cl)NCCC1=CCCCC1`, the “hERG current change (%, negative = inhibition) at 1uM” value is reported as 7.46%.

Regarding `O=C(CCCCCNC(=O)N1CCn2c1nc1ccccc12)NCc1ccccc1`, the “hERG current change (%, negative = inhibition) at 1uM” value worked out at 6.25%.

Take `Cc1cccc(N2C(=O)c3cccnc3C2=O)c1`: the “hERG current change (%, negative = inhibition) at 1uM” value worked out at 12.8%.

On to `O=C(Cn1nc(-c2ccc(Cl)cc2)ccc1=O)NCC1COCCO1` (centres unmarked), for which the “hERG current change (%, negative = inhibition) at 1uM” value is on record as 3.16%.

Take `COc1ccc(O)c(C=Nc2cc(C)on2)c1`: the “hERG current change (%, negative = inhibition) at 1uM” value is -0.0913%.

Turning to `O=S(=O)(c1cccs1)N1CCc2ccccc2C1`, the “hERG current change (%, negative = inhibition) at 1uM” value is listed as 1.45%.
